Source: PubChem BioAssay AID1963576 (National Center for Advancing Translational Sciences (NCATS), 2024)
The campaign covered roughly 46,000 compounds. About 60 (0.1%) were called active. Not shown: some 3% with an inconclusive outcome. Calls follow the shape of the dose curve; as a rule, active = well fitted inhibition curve with a large enough effect; inconclusive = small, poorly fitted or top-dose-only effect; inactive = no such curve, though single readings can be large or run the other way. This is one part of the list.

Assay: Primary qHTS assay for Inhibitors of ovarian cancer metastasis using an organotypic tumor microenvironment (TME) model. Also: nearly all actives have a fitted effect of over 65% in size.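 As to activity change, negative = inhibition: plate controls were DMSO wells for no effect and tomatine positive control wells for full effect.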
Details: SKOV3ip1-GFP adhesion/invasion on 3D omental model, fluorescence; series mostly up to 45.8 µM; activity change, negative = inhibition: at the top concentration
Procedure, shortened: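 Primary human omental fibroblast/mesothelial 3D culture pre-formed 48 h. SKOV3ip1-GFP cells added with compounds (0.36-46 umol/L), incubated 2 h RT/16 h 37 C, fixed; GFP cells quantified at 488/509 nm.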

Activity change, negative = inhibition, inactive:
CCN(C(=O)CSc1nc2ccccc2nc1Cc1ccc(F)cc1)c1cccc(C)c1 42.6%
COc1cc(CNCCSc2nnnn2C)ccc1OCc1ccc(Cl)cc1Cl -19.1%
Cc1nccn1CC1CCc2c(c3ccccc3n2C)C1=O (configuration not stated) 1.4%
Cc1ccc(NC(=O)Cn2nc3c(cc2=O)CCCC3)cc1Cl -17.8%
COc1ccc(NC(=O)C2CCC(CNS(=O)(=O)c3ccc(Br)s3)CC2)c(OC)c1 (configuration not stated) -1.44%
CC(C)CC(C(=O)NCC1CCN(Cc2ccc(F)cc2)CC1)N1Cc2ccccc2C1=O (configuration not stated) -7.87%
CC(=O)c1ccc(NC(=O)CCc2c(C)nn(-c3ccc4nnc(C)n4n3)c2C)cc1 -10%
CCc1ccc(NC(=O)Cn2cc(S(=O)(=O)c3ccc(F)cc3)c(=O)c3cc(OC)ccc32)cc1 42%
CC(C)Nc1nc2c(-c3cccc(Br)c3)nnn2c2ccccc12 21.7%
COC(=O)C1=C(C)N(C(C)C)C(=O)C1(NC(=O)c1ccc(C(C)(C)C)cc1)C(F)(F)F (configuration not stated) 7.42%
Cc1ccccc1Cn1c(=O)n(CCC(=O)NCc2ccco2)c(=O)c2sccc21 7.47%
CCn1cc(C(=O)N2CCN(c3cc(Cl)ccc3C)CC2)c(=O)c2cc(S(=O)(=O)N3CCCCC3)ccc21 4.99%
O=C(NCCn1cc(SCc2ccc(F)cc2)c2ccccc21)c1cccs1 -12.9%
CCc1nc(-c2ccc(C)c(S(=O)(=O)N3CCN(c4ccc(C(C)=O)cc4)CC3)c2)no1 -2.87%
Cc1ccccc1C(=O)N1c2ncnn2C2(CCCCC2)[C@@H]2CCCC[C@@H]21 -11.8%
CCCc1cc(=O)[nH]c(Nc2ccc(OCC)cc2)n1 -0.796%
COc1ccccc1NC(=O)C1=C(C)Nc2nc(-c3ccco3)nn2C1c1ccccc1F (configuration not stated) -1.79%
CC(=O)NC[C@H]1CN(c2ccc(N3CCOCC3)c(F)c2)C(=O)O1 32.6%
Cc1ccc(NC(=O)CSc2nc(-c3ccco3)nc3cc(=O)[nH]n23)cc1 5.16%
COc1cccc(CCNC(=O)c2cnc3sc(N4CCOCC4)nn3c2=O)c1 1.65%
Cc1ccc(Cn2c(C)c3cnn(CC(=O)NCCc4ccc(Cl)cc4)c(=O)c3c2C)cc1 4.12%
Cc1cccc(S(=O)(=O)c2cn(C)c3cc(N4CCN(c5ccccc5)CC4)c(F)cc3c2=O)c1 2.31%
Cc1ccccc1C(=O)N1CCC(C(=O)Nc2ccc(F)cc2F)CC1 7.57%
CCCNC(=O)CN1CCN(c2ccc(NC(=O)c3ccc(OC)cc3)cc2C(=O)O)CC1 -9.1%
CCOC(=O)c1cccc(NC(=O)NC(C)c2c(-n3cccc3)sc3c2CCN(C)C3)c1 (configuration not stated) 0.972%
Cc1nc(N2CCOCC2)c2c(C(=O)N3CCN(c4ccccc4)CC3)c(C)oc2n1 -6.31%
Cc1ccc(S(=O)(=O)c2nc(-c3ccccc3F)oc2NCc2ccccc2)cc1 9.25%
COc1ccc(CC(=O)N2CCc3cc(OC)c(OC)cc3C2COc2ccc3c(C)cc(=O)oc3c2)cc1OC (configuration not stated) 7.06%
O=c1ccc2cc(S(=O)(=O)Nc3ccc(OC(F)(F)F)cc3)ccc2[nH]1 3.4%
Cc1ccc(CNC(=O)CSC2=Nc3ccccc3N=C(c3ccc(F)cc3)C2)cc1 5.21%
COC(=O)c1ccc(Cn2c(SCc3ccc(F)cc3)nc3ccncc32)cc1 -10%
COc1cccc(-c2noc(-c3cc(C(C)C)[nH]n3)n2)c1OC -4.41%
CCc1ccc(OCC(=O)Nc2ncn[nH]2)c(Br)c1 12.5%
CCOc1ccc(Nc2nn(-c3ccc(OC(F)(F)F)cc3)nc2C(C)=O)cc1 -2.87%
Cn1c2ccccc2c2cnn(CC(=O)Nc3ccccc3F)c(=O)c21 -5.14%
CC(C)CCn1c(=O)c2cccnc2n(CC(=O)Nc2ccccc2F)c1=O -4.25%
Cc1cc(C)cc(NC(=O)c2c(C)oc3nc(C)nc(N4CCCC4)c23)c1 -7.25%
O=C(Cn1c(=O)nc(-c2ccccc2F)c2cc(Cl)ccc21)NCCCc1ccccc1 9.89%
Cc1cccc(NC(=O)c2sc3nc(-c4cc5ccc(O)cc5oc4=O)[nH]c(=O)c3c2C)c1 -1.14%
O=C(COc1ccc(F)cc1)NCc1ccc2c(c1)CCN2C(=O)c1ccccc1 -5.21%
COc1ccccc1CNC(=O)CCNS(=O)(=O)c1ccc2c(c1)oc(=O)n2C -4%
COc1ccc(CNC(=O)C2CCCN(c3nnc(C)c4c(C)n(-c5ccc(C)cc5)nc34)C2)cc1 (configuration not stated) -28.7%
COc1ccc2c(c1)c(CC(=O)OCC(=O)O)c(C)n2C(=O)c1ccc(Cl)cc1 -27.9%
Cc1cccc(CNC(=O)CCCN2C(=O)CCn3nc(-c4cccn4C)cc32)c1 0.658%
Cc1ccc(-n2nc(C)c3nc(CCC(=O)Nc4cccc(F)c4)c(=O)n(C)c32)cc1 6.17%
Clc1ccc(-c2noc(-c3cccnc3NCc3ccco3)n2)cc1 -5.04%
Cc1ccc(C)c(Cn2c3ccccc3c3cnn(CC(=O)NCCc4ccccc4)c(=O)c32)c1 -0.864%
Cc1ccc2c(c1)c1c3n2CCN(C(=O)c2cccc(C(F)(F)F)c2)C3CCC1 (configuration not stated) -19.2%
COc1ccc(N2CCN(Cc3nnc(-c4ccc5c(c4)OCO5)o3)CC2)cc1 -1.82%

outcome, inactive:
COc1cc(NC(=O)N2CCC(CN3CCCCCC3)CC2)cc(OC)c1OC
O=C(CSc1nc(-c2ccccc2)nc2cc(=O)[nH]n12)Nc1ccccc1
Cn1nnnc1SCCNCc1ccc(Cl)c(Cl)c1
COc1ccc(CNC(=O)c2ccc(NC(=O)N3CCSc4ncccc43)cc2)cc1
Cc1cc2c(cc3c(SCC(=O)Nc4ccc(Cl)cc4F)nncn32)o1
O=C(COc1ccccc1F)Nc1ccc(OCc2cc(=O)n3ccccc3n2)cc1
COCCCN1C(=O)c2oc3ccccc3c(=O)c2C12C(=O)N(C)c1ccccc12 (configuration not stated)
CCOc1ccc(NC(=O)CCc2c(C)nc3c(-c4ccccc4)c(C)nn3c2C)cc1
COc1cccc(Cn2c(-c3nonc3NC(C)=O)nc3ccccc32)c1
CNC(=O)c1ccc2c(c1)N(Cc1ccccc1Cl)C(=O)c1ccccc1S2
CCOc1c(Cl)cc(C(=O)N(Cc2ccc(N(C)C)cc2)Cc2ccco2)cc1Cl
CCc1cccc(C)c1Nc1c(-c2ccsc2)nc2ncccn12
O=S(=O)(c1ccc(Cl)cc1Cl)n1ccnc1
